Laboratory results: PubChem BioAssay AID624417 (National Center for Advancing Translational Sciences (NCATS), 2012)
The whole screen tested about 410,000 compounds, of which about 6,400 (1.6%) were called active. Inconclusive means that the source gave no clear call. Such entries were picked first, then a sample of the others. Calls come from the whole dose curve; as a rule, active = well fitted inhibition curve with a large enough effect; inconclusive = small, poorly fitted or top-dose-only effect; inactive = no such curve, though single readings can be large or run the other way. Potencies of inconclusive entries are left out as doubtful fits.

target: Glucagon-like peptide 1 receptor (Homo sapiens) (UniProt P43220); assay: qHTS of GLP-1 Receptor Inverse Agonists (Inhibition Mode); settings: HEK293 GLP-1R CRE-luciferase, luminescence, 24 h, GLP-1R form is constitutively active; activity change, negative = inhibition: at 38.3 µM (top of the series) unless noted; note: nearly all actives have a fitted effect of over 55% in size
UniProt P43220, sequence (P43220 whole entry, looked up): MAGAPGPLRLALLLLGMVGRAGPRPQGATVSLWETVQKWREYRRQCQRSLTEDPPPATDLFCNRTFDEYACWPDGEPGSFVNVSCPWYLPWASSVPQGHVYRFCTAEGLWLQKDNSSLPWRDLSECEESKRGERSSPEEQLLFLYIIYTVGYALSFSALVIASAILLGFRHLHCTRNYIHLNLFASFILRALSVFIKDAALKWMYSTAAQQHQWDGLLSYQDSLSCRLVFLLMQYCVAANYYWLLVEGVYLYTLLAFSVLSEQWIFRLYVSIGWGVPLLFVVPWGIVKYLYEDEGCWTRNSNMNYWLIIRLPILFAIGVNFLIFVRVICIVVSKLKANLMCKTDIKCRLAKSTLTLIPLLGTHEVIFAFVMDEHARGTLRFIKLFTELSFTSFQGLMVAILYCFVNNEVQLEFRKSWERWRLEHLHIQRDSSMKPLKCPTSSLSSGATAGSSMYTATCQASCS
In short: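 Inverse agonists were sought by their lowering of basal cAMP reporter luciferase output in HEK293 cells stably carrying constitutively active human GLP-1R, after 24 h compound treatment.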
% is set by controls: 0 for no effect and ±100 for the full control effect; potency is the fitted concentration of half-maximal effect; tags give direction and shape of the fitted curve.

Structure (SMILES)	Potency	activity change, negative = inhibition
COc1ccc(NC(=O)C2(C)Cc3c(-c4ccc5c(c4)OCO5)ccnc3O2)cc1 (stereo not drawn)	inconclusive [inhibitor, partial curve, poor fit]	
CCN1CCCC1CNC(=O)C(=O)NCc1ccccc1 (stereo not drawn)	inconclusive [inhibitor, full curve, poor fit]	
CC1CN(c2nc(-c3ccccc3)nc3ccccc23)CC(C)O1 (stereo not drawn)	inconclusive [inhibitor, single point]	
CCC(C)Nc1nc(-c2ccccn2)nc2ccccc12 (stereo not drawn)	inconclusive [inhibitor, full curve, poor fit]	
S=C(NCCCCc1ccccc1)NCc1ccccc1	inconclusive [inhibitor, single point]	
CCCCCn1c(CNC(=O)c2cccs2)nc2ccccc21	inconclusive [inhibitor, single point]	
CCOC(=O)c1ccc(NC(=S)N(CCCN2CCN(CC)CC2)Cc2ccco2)cc1	inconclusive [inhibitor, partial curve, poor fit]	
COc1cc(-c2cnc3c(NC(C)=O)cc(-c4ccccc4CN(C)C)cn23)cc(OC)c1OC	inconclusive [inhibitor, partial curve, poor fit]	
COc1ccc(C(=O)Cc2ccccc2C(=O)O)cc1		inactive: 0.777%
CC(=O)c1cccc(NC(=O)N2CCCCCC2)c1		inactive: 3.85%
O=S(=O)(c1cc(F)ccc1F)N1CCN(c2ncnc3ccccc23)CC1	inconclusive [inhibitor, partial curve, poor fit]	
c1ccc(OCCCc2nc(-c3ccncc3)no2)cc1		inactive: -1.37%
COc1ccc(C2=NN(C(=O)c3cccs3)C(c3ccc(OC)cc3)C2)cc1 (stereo not drawn)	inconclusive [inhibitor, single point]	
C/C(=C\c1ccc(Br)cc1)C(=O)c1c(C)cc(C)[nH]c1=O	inconclusive [inhibitor, full curve]	
CCOC(=O)c1c(NC(=O)CN(CC)CC)sc2c1CCN(C(=O)OCC)C2	inconclusive [inhibitor, single point]	
COc1c(/C=N/Nc2ccc([N+](=O)[O-])cc2[N+](=O)[O-])c(C)nn1-c1ccccc1		inactive: 0.257%
CCc1ccc(NC(=O)N2CCc3ccccc3C2)cc1	inconclusive [inhibitor, single point]	
CN(C)c1ccc(CC2C(=O)Nc3ccccc32)cc1 (stereo not drawn)		inactive: 29.3%
O=C(N[C@H]1/C=C\[C@@H](O)CCCC1)OCc1ccccc1		inactive: -12.4%
CCCCCCCCN1C(=O)[C@H](CC(=O)NCc2ccc(C)o2)C[C@@]2(C(=O)OCC)CCC=C12	inconclusive [inhibitor, partial curve, poor fit]	
CC(C)(C)OC(=O)N(CCc1ccccc1)Cc1ccccc1OCc1cccc(NC(=O)C2CCCC2)c1	active: 2.82 µM	
Cc1ccccc1NC(=O)NC1CCCCCCC1		inactive: -27.4%

Structure (SMILES)	Potency	activity change, negative = inhibition
Cc1ccc2ccccc2c1C(O)c1ncc(-c2ccccc2F)[nH]1 (stereo not drawn)	inconclusive [inhibitor, single point]	
CCN(CC)CC1C(=O)N(c2ccc(OC)cc2)C1c1ccccc1 (stereo not drawn)	active: 10 µM	
CCOCc1nnc(NC(=O)C2c3ccccc3Oc3ccccc32)s1	inconclusive [inhibitor, partial curve, poor fit]	
CC(C)(C)NC(=O)CSc1nc2scc(-c3ccccc3)c2c(=O)[nH]1	inconclusive [inhibitor, single point]	
COc1cc(NC(=O)c2ccccc2)c(OC)cc1NC(=O)CN1CCN(c2ccccn2)CC1	inconclusive [inhibitor, single point]	
CC(C)CCNC(=O)C1CCN(C(=O)N2CCOc3ccc(Cl)cc32)CC1		inactive: 0.175%
Cc1ccc(N(C)S(=O)(=O)c2cccc(C(=O)Nc3ccc(C)cn3)c2)cc1	inconclusive [inhibitor, single point]	
CCC(=O)Oc1c(S(=O)(=O)c2ccc(C)cc2)c(C)nn1C(C)(C)C	inconclusive [inhibitor, partial curve, poor fit]	
CC(C)(C)c1nc(SCC(=O)NNC(=O)c2ccccc2)c2ccccc2n1	inconclusive [inhibitor, single point]	
O=C(CN1CCN(S(=O)(=O)c2ccc(F)cc2)CC1)Nc1cc(C(F)(F)F)ccc1Cl		inactive: 14.4%
COc1cc(C(=O)OCC(=O)Nc2sccc2C(N)=O)cc(OC)c1OC	inconclusive [inhibitor, full curve, poor fit]	
Cn1nnc(NCc2cc(Br)ccc2OCc2cccs2)n1	inconclusive [inhibitor, partial curve]	
CN1CCN(c2nc(-c3ccccc3)nc(-c3ccccc3)c2C#N)CC1		inactive: -11.5%
O=C1CCC/C(=N\NC(=O)c2ccc(COc3ccccc3-c3ccccc3)cc2)C1	inconclusive [inhibitor, single point]	
Cn1nc(-c2ccccc2)c(C(=O)Nc2ccc(C(F)(F)F)cc2)c1Cl		inactive: 0.801%
COc1ccccc1Nc1nn2c(=O)c3ccc(C(=O)NCc4ccc(F)cc4)cc3nc2s1	inconclusive [inhibitor, full curve, poor fit]	
COc1ccc(NC(=O)c2c(C)oc3ccc(O)c(CN4CCC(C)CC4)c23)cc1	inconclusive [inhibitor, single point]	
COc1cc(C=C(c2nc3ccccc3s2)c2nc3ccccc3s2)ccc1O	inconclusive [inhibitor, single point]	
O=C(N/N=C/c1cc(Br)cs1)c1ccccc1[N+](=O)[O-]	inconclusive [inhibitor, partial curve, poor fit]	
O=C(C1CCC(Cn2c(=O)c3sccc3n(Cc3cccc(F)c3)c2=O)CC1)N1CCCCC1 (stereo not drawn)	inconclusive [inhibitor, partial curve, poor fit]	
O=C(CCNC(=O)c1ccccc1Cl)NCCc1ccc(Cl)cc1	inconclusive [inhibitor, single point]	
